# This is one part of the list.
# B1: Epa1-NP-mutant-E227G (Candida glabrata), Q6VBJ0 (protein)
# chain: MILNPALFLNKCVCIYTTLILLLLTNGGYATSSNDISLASKDPTTFPLGCSPDITTPKKGLSMELYSYDFRKKGSYPCWDAAYLDPNYPRTGYKSHRLLAKVDGVTGNINFYYHATKGCTPQLGHLPASYNYPKPLTMTNFTMLLYGYFRPKVTGFHTFTISADDLLFVNFGAGNAFDCCRRDSSADHFGNYQAYAIWGSKTAKDELTVHLDAGVYYPIRLFYNNRGYDGALSFTFKTESNENTVSDFSEYFFSLDDTEEGCPGLISYDSSCASVKTSKIIGIDYHTETPNENLVPITKTIYHLGIPCTGTTTTPLCGSGFYDPLANKCVTINTSSTSSVTKTTSHTTSKEVSFHSSISSQKTLIPKSIPSPYGPIKSQSIPTEMETSSEISSSEYAFSDVISTPSHSPYTKKHSSLNSSSYTSTVIHSLTSYSISQGIFSTSLSEQNITSKSSTDKFSTATSMSNNITQSSIIISQFSTNNENYTTTSMHTSSDKISTETLNNSISTTTSILFSNSSTILKNNTTIISSDKDTHYHPVNPTIVCSTNKTEIICASITQPSISNSNNHWSSSVLKFNSTTVRSTLPSSAGSNETSINVPFSSSTESNTSTSSTSTSNSKMVRSTLPSSAGSNETSISVPFSSSTESNTSTSSTSTSNSKMVRSTLPSSAGSNETSINVPFSSSTESNTSTSSTSTSNSKTVRSTPFSSAGIIMTSLSQRNNKSASSYASSNSKCYNTADSCRKVHSTPSYLLTSSYTSEGVDYDCSLVSTKLKINDTNCVNNKHTTKSCLKTSVTTTIPTLEIKTARKSSSNTIGLHSYPTSSPNKSISSAPIIGYISSFKTIKTASPSYQTSDLTTITTITSLNNPGSTAVENTHESNDKSRKTSSNDISSKHSVIKETKDAVESSNKSHQTNTLKCSSIIIASSSHNSYESLGGTTLTLTLSKVYSPQNNDTLPFLEISEVNPSRTVLPESSKMMQYLTSTEERNKTARNTIATNIVSISTFHFEGEGNAIRMGYTQLLLMLIGIIVMNIGT
# What was measured:
# Test in all cases: glycan array binding signal (z-score within array); higher = stronger binding
# Conditions in all cases: glycan notation: IUPAC condensed, linker removed; mutation: E227G
# [1] = target: Neu5Ac(a2-6)GlcNAc(b1-4)GlcNAc
# How it was run: (§1)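 The Consortium for Functional Glycomics database supplied 3228 glycan arrays, of which those lacking an available protein sequence were dropped. The binding signal, a within-array Z-score, was averaged across arrays of the same protein sequence and across linkers. Negative scores can be read as non-binding.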
# [2] = target: Neu5Ac(a2-6)GlcNAc(b1-4)GlcNAc(b1-4)GlcNAc
# How it was run: as §1
# [3] = target: Neu5Ac(a2-8)Neu5Ac
# How it was run: as §1
# [4] = target: Neu5Ac(a2-8)Neu5Ac(a2-3)Gal(b1-3)GalNAc(b1-4)[Neu5Ac(a2-3)]Gal(b1-4)Glc
# How it was run: as §1
# [5] = target: Neu5Ac(a2-8)Neu5Ac(a2-3)Gal(b1-3)GalNAc(b1-4)[Neu5Ac(a2-8)Neu5Ac(a2-3)]Gal(b1-4)Glc
# How it was run: as §1
# [6] = target: Neu5Ac(a2-8)Neu5Ac(a2-3)Gal(b1-4)Glc
# How it was run: as §1
# [7] = target: Neu5Ac(a2-8)Neu5Ac(a2-3)Gal(b1-4)GlcNAc
# How it was run: as §1
# [8] = target: Neu5Ac(a2-8)Neu5Ac(a2-3)[Gal(b1-3)GalNAc(b1-4)]Gal(b1-4)Glc
# How it was run: as §1
# [9] = target: Neu5Ac(a2-8)Neu5Ac(a2-3)[GalNAc(b1-4)]Gal(b1-4)Glc
# How it was run: as §1
# [10] = target: Neu5Ac(a2-8)Neu5Ac(a2-8)Neu5Ac
# How it was run: as §1
# [11] = target: Neu5Ac(a2-8)Neu5Ac(a2-8)Neu5Ac(a2-3)Gal(b1-4)Glc
# How it was run: as §1
# [12] = target: Neu5Ac(a2-8)Neu5Ac(a2-8)Neu5Ac(a2-3)[Gal(b1-3)GalNAc(b1-4)]Gal(b1-4)Glc
# How it was run: as §1
# [13] = target: Neu5Ac(a2-8)Neu5Ac(a2-8)Neu5Ac(a2-3)[GalNAc(b1-4)]Gal(b1-4)Glc
# How it was run: as §1
# [14] = target: Neu5Ac(a2-8)Neu5Ac(a2-8)Neu5Ac(a2-8)Neu5Ac(a2-3)[GalNAc(b1-4)]Gal(b1-4)Glc
# How it was run: as §1
# [15] = target: Neu5Ac(a2-8)Neu5Gc(a2-3)Gal(b1-4)GlcNAc
# How it was run: as §1
# [16] = target: Neu5Ac(b2-6)Gal(b1-4)GlcNAc
# How it was run: as §1
# [17] = target: Neu5Ac(b2-6)GalNAc
# How it was run: as §1
# [18] = target: Neu5Ac9Ac(a2-3)Gal(b1-3)GlcNAc
# How it was run: as §1
# [19] = target: Neu5Ac9Ac(a2-3)Gal(b1-4)GlcNAc
# How it was run: as §1
# [20] = target: Neu5Ac9Ac(a2-6)Gal(b1-4)GlcNAc
# How it was run: as §1
# [21] = target: Neu5Gc(a2-3)Gal(b1-3)GlcNAc
# How it was run: as §1
# [22] = target: Neu5Gc(a2-3)Gal(b1-3)[Fuc(a1-4)]GlcNAc
# How it was run: as §1
# [23] = target: Neu5Gc(a2-3)Gal(b1-4)Glc
# How it was run: as §1
# [24] = target: Neu5Gc(a2-3)Gal(b1-4)GlcNAc
# How it was run: as §1
# [25] = target: Neu5Gc(a2-3)Gal(b1-4)GlcNAc(b1-3)Gal(b1-4)GlcNAc(b1-2)Man(a1-3)[Neu5Gc(a2-3)Gal(b1-4)GlcNAc(b1-3)Gal(b1-4)GlcNAc(b1-2)Man(a1-6)]Man(b1-4)GlcNAc(b1-4)GlcNAc
# How it was run: as §1
# [26] = target: Neu5Gc(a2-3)Gal(b1-4)[Fuc(a1-3)]GlcNAc
# How it was run: as §1
# [27] = target: Neu5Gc(a2-6)Gal(b1-4)GlcNAc
# How it was run: as §1
# [28] = target: Neu5Gc(a2-6)GalNAc
# How it was run: as §1
# [29] = target: Neu5Gc(a2-8)Neu5Ac(a2-3)Gal(b1-4)GlcNAc
# How it was run: as §1
# [30] = target: Neu5Gc(a2-8)Neu5Gc(a2-3)Gal(b1-4)GlcNAc
# How it was run: as §1
binder,measurement,setting,value
B1,glycan array binding signal (z-score),[1],-0.187
same,glycan array binding signal (z-score),[2],-0.229
same,glycan array binding signal (z-score),[3],-0.302
same,glycan array binding signal (z-score),[4],-0.12
same,glycan array binding signal (z-score),[5],-0.191
same,glycan array binding signal (z-score),[6],-0.074
same,glycan array binding signal (z-score),[7],-0.226
same,glycan array binding signal (z-score),[8],0.176
same,glycan array binding signal (z-score),[9],-0.236
same,glycan array binding signal (z-score),[10],-0.128
same,glycan array binding signal (z-score),[11],-0.195
same,glycan array binding signal (z-score),[12],-0.276
same,glycan array binding signal (z-score),[13],0.025
same,glycan array binding signal (z-score),[14],-0.098
same,glycan array binding signal (z-score),[15],-0.25
same,glycan array binding signal (z-score),[16],-0.264
same,glycan array binding signal (z-score),[17],-0.207
same,glycan array binding signal (z-score),[18],-0.253
same,glycan array binding signal (z-score),[19],-0.115
same,glycan array binding signal (z-score),[20],-0.307
same,glycan array binding signal (z-score),[21],-0.077
same,glycan array binding signal (z-score),[22],-0.006
same,glycan array binding signal (z-score),[23],-0.13
same,glycan array binding signal (z-score),[24],-0.161
same,glycan array binding signal (z-score),[25],-0.18
same,glycan array binding signal (z-score),[26],-0.044
same,glycan array binding signal (z-score),[27],-0.199
same,glycan array binding signal (z-score),[28],-0.066
same,glycan array binding signal (z-score),[29],-0.226
same,glycan array binding signal (z-score),[30],-0.222

# — the supplement of paper PMC8728848
